In PMC4336329 (PLoS ONE, 2015):
Out of some 310,000 compounds screened, about 14,000 (4.5%) showed an effect of 50% or more. Effects have a minus sign here. This is one part of the list.
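Further: peak tail current of the secondary pulse compared with the same well before compound.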

What follows are compounds tested against human ether-à-go-go-related gene (hERG) potassium channel (human, UniProt Q12809) (assay: primary screen, population patch clamp on CHO cells stably expressing hERG).
Chain of human ether-à-go-go-related gene (hERG) potassium channel (Q12809 whole entry, looked up): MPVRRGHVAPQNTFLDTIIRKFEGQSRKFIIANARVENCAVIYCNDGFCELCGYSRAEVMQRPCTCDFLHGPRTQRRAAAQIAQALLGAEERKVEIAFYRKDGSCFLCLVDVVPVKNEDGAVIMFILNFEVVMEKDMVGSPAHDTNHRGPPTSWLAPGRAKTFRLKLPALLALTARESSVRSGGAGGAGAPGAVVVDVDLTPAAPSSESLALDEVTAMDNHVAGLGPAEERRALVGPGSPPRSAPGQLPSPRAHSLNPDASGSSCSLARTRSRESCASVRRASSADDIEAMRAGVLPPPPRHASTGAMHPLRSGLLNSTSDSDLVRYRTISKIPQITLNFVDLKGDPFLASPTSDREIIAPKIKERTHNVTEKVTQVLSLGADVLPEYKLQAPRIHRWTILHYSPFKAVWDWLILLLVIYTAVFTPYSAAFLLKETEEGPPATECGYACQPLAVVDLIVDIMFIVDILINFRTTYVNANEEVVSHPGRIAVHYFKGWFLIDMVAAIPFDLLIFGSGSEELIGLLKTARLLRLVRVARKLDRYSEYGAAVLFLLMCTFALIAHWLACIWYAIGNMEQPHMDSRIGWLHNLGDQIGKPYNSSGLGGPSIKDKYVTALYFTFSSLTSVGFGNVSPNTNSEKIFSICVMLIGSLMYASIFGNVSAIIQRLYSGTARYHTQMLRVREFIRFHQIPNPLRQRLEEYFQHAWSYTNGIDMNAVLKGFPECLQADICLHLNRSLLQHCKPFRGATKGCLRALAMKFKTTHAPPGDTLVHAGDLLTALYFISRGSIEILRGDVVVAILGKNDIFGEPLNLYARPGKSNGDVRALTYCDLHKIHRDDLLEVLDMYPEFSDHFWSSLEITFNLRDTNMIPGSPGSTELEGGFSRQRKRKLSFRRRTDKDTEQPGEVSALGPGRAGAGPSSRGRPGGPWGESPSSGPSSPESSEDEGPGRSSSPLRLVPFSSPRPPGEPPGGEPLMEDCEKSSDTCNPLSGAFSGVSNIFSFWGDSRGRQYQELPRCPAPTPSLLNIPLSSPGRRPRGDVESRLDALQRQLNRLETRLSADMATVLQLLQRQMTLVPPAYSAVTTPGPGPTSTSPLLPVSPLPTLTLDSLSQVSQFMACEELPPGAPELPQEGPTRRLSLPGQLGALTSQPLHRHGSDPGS
With Cc1ccc(N2C(N)=C(C#N)C(c3cccs3)C3=C2CC(C)(C)CC3=O)cc1 (stereo not shown) the “hERG current change (%, negative = inhibition) at 10uM” value was -21.3%.
Cc1cc(C)cc(OCC(O)CN2CCN(C(=O)c3ccco3)CC2)c1 (stereo not shown) was tested, and the “hERG current change (%, negative = inhibition) at 10uM” value was -43.7%.
For O=C(NCc1ccc2c(c1)OCO2)C1CCCN1C(=O)Nc1ccccc1 (stereo not shown), the “hERG current change (%, negative = inhibition) at 10uM” value was -31.6%.
In the case of COc1cc(CN2CC(C)OC(C)C2)cc(OC)c1 (stereo not shown), the “hERG current change (%, negative = inhibition) at 10uM” value was -10.8%.
With CN(C)CC1CSCCC1(O)c1ccccc1.Cl (stereo not shown) the “hERG current change (%, negative = inhibition) at 10uM” value was 2.12%.
With Cc1cc(C)c2nc(C)cc(Nc3ccc(C(=O)N4CCOCC4)cc3)c2c1 the “hERG current change (%, negative = inhibition) at 10uM” value was -43.8%.
With CCOc1ccc(-c2cccc(NS(=O)(=O)c3cc([N+](=O)[O-])ccc3C)c2)nn1 the “hERG current change (%, negative = inhibition) at 10uM” value was -25%.
With O=S(=O)(Cc1ccccc1)Nn1cnnc1 the “hERG current change (%, negative = inhibition) at 10uM” value was 11.4%.
With Clc1ccc(/C=N/Nc2ccccn2)cc1 the “hERG current change (%, negative = inhibition) at 10uM” value was 14.7%.
With CN(C(=O)c1ccc2c(=O)n3c(nc2c1)CCCCC3)c1ccccc1 the “hERG current change (%, negative = inhibition) at 10uM” value was 9.53%.
For O=C(Nc1ncn[nH]1)c1ccc([N+](=O)[O-])cc1[N+](=O)[O-], the “hERG current change (%, negative = inhibition) at 10uM” value was 18.2%.
CCCCCCc1c(O)c2ccccc2[nH]c1=O was tested, and the “hERG current change (%, negative = inhibition) at 10uM” value was -4.9%.
In the case of CCN1CCN(CCCNC(=O)c2ccc3c(Cl)c4c(nc3c2)CCCC4)CC1, the “hERG current change (%, negative = inhibition) at 10uM” value was -46.8%.
In the case of Cc1ccccc1N1CC(C(=O)Nc2ccc(S(=O)(=O)N3CCOCC3)cc2)CC1=O (stereo not shown), the “hERG current change (%, negative = inhibition) at 10uM” value was -2.57%.
For CC1CN=C(N(C(=O)Nc2ccccc2)c2ccc(S(=O)(=O)N3CCOCC3)cc2)S1 (stereo not shown), the “hERG current change (%, negative = inhibition) at 10uM” value was -15.8%.
CC(C)SCc1nc2ccccc2[nH]1 was tested, and the “hERG current change (%, negative = inhibition) at 10uM” value was -3.73%.
In the case of CCCS(=O)(=O)N1CCC(C(=O)NCc2ccccc2Cl)CC1, the “hERG current change (%, negative = inhibition) at 10uM” value was 0.853%.
In the case of CCc1c(C)nc2nc(NC(C)=O)[nH]n2c1=O, the “hERG current change (%, negative = inhibition) at 10uM” value was 15%.
In the case of O=C(Cc1cccs1)NNC(=S)NC(=O)c1ccc(F)c(F)c1, the “hERG current change (%, negative = inhibition) at 10uM” value was 12.2%.
O=C(Oc1ccc(=O)n(-c2ccccc2)n1)c1ccc(Cl)cc1 was tested, and the “hERG current change (%, negative = inhibition) at 10uM” value was 1.87%.
COc1ccc(C2CC(c3ccc(C)cc3)Nc3nc(N)nn32)cc1 (stereo not shown) was tested, and the “hERG current change (%, negative = inhibition) at 10uM” value was -14.5%.
For O=C1CSCN1c1cc(Cl)ccc1Cl, the “hERG current change (%, negative = inhibition) at 10uM” value was 3.86%.
For COCCNC(=O)C(=O)Nc1ccc2c(c1)N(S(=O)(=O)c1cccs1)CCC2, the “hERG current change (%, negative = inhibition) at 10uM” value was -1.44%.
For O=C(/C=C/c1ccco1)NC(=S)Nc1cc(-c2nc3ccccc3s2)ccc1Cl, the “hERG current change (%, negative = inhibition) at 10uM” value was 1.95%.
Cc1cc(C)n(CCc2nc3c4ccccc4n(CC#N)c(=O)n3n2)n1 was tested, and the “hERG current change (%, negative = inhibition) at 10uM” value was 4.73%.
